Some of the results follow.
target: T1, OsWOX13 (Oryza sativa, UniProt Q5QMM3 1-267); assay: protein-binding microarray (RPBM); PBS, 2% BSA, 51.3 ng/ul salmon testes DNA, 50 uM zinc acetate, 200 nM TF, 25 C, 1 h; high values mean tight binding; settings: protein: recombinant; tags: N-terminal polyhistidine and DsRed monomer fusion (pET32a); label: CyDye5-dUTP incorporated in the synthesized complementary strand; 3' TTTTT single-stranded linker to array surface; dsDNA, one strand shown
T1 sequence: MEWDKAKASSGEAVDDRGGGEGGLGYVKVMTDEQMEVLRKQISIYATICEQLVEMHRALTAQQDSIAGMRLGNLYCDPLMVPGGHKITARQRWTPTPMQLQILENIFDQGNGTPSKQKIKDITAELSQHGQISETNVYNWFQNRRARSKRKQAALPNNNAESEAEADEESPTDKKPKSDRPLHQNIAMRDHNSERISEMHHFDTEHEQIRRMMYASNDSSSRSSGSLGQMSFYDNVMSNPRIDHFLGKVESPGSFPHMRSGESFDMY
Procedure, shortened: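 Binding signal here means per-feature fluorescence intensity in arbitrary units. The values were read on an Axon 4000B scanner after a custom Agilent array, double-stranded by primer extension with Cy5-dUTP, was incubated with 200 nM protein at 25 °C for 1 h in PBS with 2% BSA, salmon testes DNA and 50 µM zinc acetate, then washed. The proteins were transcription factors with an N-terminal polyhistidine tag and DsRed, expressed in E. coli BL21-CodonPlus and purified on Ni–NTA.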

| Sequence | binding signal |
| --- | --- |
| AATTCTGTGATTAGCGGGTGCTTTTCGAATGGATGGCATGCGGAGTCACCTAGTGCAG | 29200 fluorescence intensity (a.u.) |
| GTTTTATTAGGTAAGTGTTTGATTGGTTGTTAGCCACACTCGGAGTCACCTAGTGCAG | 12800 fluorescence intensity (a.u.) |
| GGTCGCGGTCAATTTATATAATTAATTGCTAATTAATCACCGGAGTCACCTAGTGCAG | 39700 fluorescence intensity (a.u.) |
| ATTAACACTTACACTTGATTAATTAAGTTTTAATCATTTTCGGAGTCACCTAGTGCAG | 16900 fluorescence intensity (a.u.) |
| GGAAAGACAGATTGAAGAAGCTGGGGTTCAAACCCAGGATCGGAGTCACCTAGTGCAG | 10300 fluorescence intensity (a.u.) |
| GATCATACAGGTTAATTGCGCATGGCACATCCAACGGTACCGGAGTCACCTAGTGCAG | 5980 fluorescence intensity (a.u.) |
| TTACGTAATTATAATTTATTTTGTTATGGGTTGTTTTATCCGGAGTCACCTAGTGCAG | 43100 fluorescence intensity (a.u.) |
| CGTTGACATGGACGAGTTCGAGGAGAACGGTGGTGTGGTGCGGAGTCACCTAGTGCAG | 7170 fluorescence intensity (a.u.) |
| GCAAATTTAAATCACATCAACTTATCTCTACTACTTTAAACGGAGTCACCTAGTGCAG | 14600 fluorescence intensity (a.u.) |
| AATTTCACATAGATGATTGAACAAATAATTTCTCAGTGTACGGAGTCACCTAGTGCAG | 31200 fluorescence intensity (a.u.) |
| TATGTAGGCTATGATTGAATGCCACAATATTGCAATGTCACGGAGTCACCTAGTGCAG | 12900 fluorescence intensity (a.u.) |
| ACTCAAATTTAAATTTGCAATATAAAATTTGAAAACTTTCCGGAGTCACCTAGTGCAG | 14200 fluorescence intensity (a.u.) |
| GCCACAATTAAATTTAAAAGATTTGTCTCGCAATTTACACCGGAGTCACCTAGTGCAG | 7930 fluorescence intensity (a.u.) |
| TTACATCGTAACTGTAGTATAATTATATTATAACTTATAACGGAGTCACCTAGTGCAG | 3150 fluorescence intensity (a.u.) |
| CCTAATAAACGTTGAGTGTTATAATCAGCTGTAAACGATGCGGAGTCACCTAGTGCAG | 5940 fluorescence intensity (a.u.) |
| TTGACAAGTTAATTATTAATTAACAACAATATATTTAATTCGGAGTCACCTAGTGCAG | 16300 fluorescence intensity (a.u.) |
| ACTCTTTACATCAGATAATGATTGGATAAACTCAATCAAACGGAGTCACCTAGTGCAG | 11900 fluorescence intensity (a.u.) |
| TAATTTATTTAATAATTACTAAGTAGTAAAACCTAGTATGCGGAGTCACCTAGTGCAG | 3370 fluorescence intensity (a.u.) |
| CAATCTGTTAGTAACATTAATTAATTGTGGATTAATAAAACGGAGTCACCTAGTGCAG | 10200 fluorescence intensity (a.u.) |
| AACATAGATAGATGATCCCCATGACCTTGCATGCCATTTCCGGAGTCACCTAGTGCAG | 4080 fluorescence intensity (a.u.) |
| ATTTTGGTTTCTGTTATTGACAAAACAACTCACTCATTCCCGGAGTCACCTAGTGCAG | 3480 fluorescence intensity (a.u.) |
| GAAATTACGTGAAACTTACATACAAGTTACAATGTAGTTACGGAGTCACCTAGTGCAG | 3320 fluorescence intensity (a.u.) |
| CGGGCTAAAATTTGAATTTCAGTTTAAATTATTTTAAAGTCGGAGTCACCTAGTGCAG | 3690 fluorescence intensity (a.u.) |
| CATAGCAAATAACTAGATTAATAGACCGGCATGATTTTCTCGGAGTCACCTAGTGCAG | 3810 fluorescence intensity (a.u.) |
| GTTATCTCTGATTGCAACATCTTGCCGTGTCCACCGCTGTCGGAGTCACCTAGTGCAG | 17400 fluorescence intensity (a.u.) |
| ACATTGATTTGTATGGCAAAATAGCCATTTTCGTCCCTAACGGAGTCACCTAGTGCAG | 33100 fluorescence intensity (a.u.) |
| CTCAGATAATTGCCTTCCATGTGTTGTTTTGTTAGATGTGCGGAGTCACCTAGTGCAG | 30700 fluorescence intensity (a.u.) |

| Sequence | binding signal |
| --- | --- |
| GAAAGGACCCTTCAATTATGTATGTGTTAATGTGTACACACGGAGTCACCTAGTGCAG | 5280 fluorescence intensity (a.u.) |
| ATGATTGCATCTTTTCTTGACAAACTTCTCTTTTGGTTGCCGGAGTCACCTAGTGCAG | 34900 fluorescence intensity (a.u.) |
| ACTTAATAATTAAGAGGCAACATGTATAATACATTACCTCCGGAGTCACCTAGTGCAG | 14700 fluorescence intensity (a.u.) |
| ATCCATAACTGACACAAGCATTATCACGACGTTTTCACGGCGGAGTCACCTAGTGCAG | 10400 fluorescence intensity (a.u.) |
| ATTTGGTGATAGGATCGATTTAATTGCTAGCTGAGGTGATCGGAGTCACCTAGTGCAG | 11000 fluorescence intensity (a.u.) |
| CTTCCCTGTCAATTCAAGATGCATTACATCTACTCTCTGTCGGAGTCACCTAGTGCAG | 5710 fluorescence intensity (a.u.) |
| TAGATTGAAGTGTTAAAACATTGATTTGATGTTCTATAGTCGGAGTCACCTAGTGCAG | 26300 fluorescence intensity (a.u.) |
| GTATTATTCTGATTTCAAATTACCCGATCTTACATAACATCGGAGTCACCTAGTGCAG | 4820 fluorescence intensity (a.u.) |
| CTAATCATCATCATCAGTTCATCACCAGTCGTCGTCAGGGCGGAGTCACCTAGTGCAG | 4280 fluorescence intensity (a.u.) |
| GCAAATTAAAGAAGGAAATATATATATAGGAGCTACGCAGCGGAGTCACCTAGTGCAG | 4190 fluorescence intensity (a.u.) |
| AAAATTCCATGTTAATTTATAATTAATATAGCTTATGTAACGGAGTCACCTAGTGCAG | 15900 fluorescence intensity (a.u.) |
| AAAATAGCAAATACTTAATTAATTACGTGCTAATAGGCCGCGGAGTCACCTAGTGCAG | 17100 fluorescence intensity (a.u.) |
| TAAAATTGAAACATAATATAAGATATGGTCAAACTTGAAACGGAGTCACCTAGTGCAG | 13800 fluorescence intensity (a.u.) |
| CCTATGATTTTGTGGTAATGTTTGAGGGTATAAACAAAGGCGGAGTCACCTAGTGCAG | 21600 fluorescence intensity (a.u.) |
| CTCTTAATAGTTTGGATGACAGTTTCATCCTACGTGACATCGGAGTCACCTAGTGCAG | 9460 fluorescence intensity (a.u.) |
| ATGCCAAATTTGACATCATGGTGACATTTAGAACATAAAACGGAGTCACCTAGTGCAG | 4060 fluorescence intensity (a.u.) |
| TCTTAATGTCCTCTAATCATGCGCCAAATATGATCCATCGCGGAGTCACCTAGTGCAG | 7160 fluorescence intensity (a.u.) |
| ACGAGATGAACACTAATTAGCAGAAGAAATTTGTTTAAATCGGAGTCACCTAGTGCAG | 13300 fluorescence intensity (a.u.) |
| AATTACATAATTTTAATACGAAGATGAATGATCAAATATACGGAGTCACCTAGTGCAG | 3410 fluorescence intensity (a.u.) |
| TCAGCTGGTTGATAATTAACTAATAACCAGCCAAGCTAGACGGAGTCACCTAGTGCAG | 4340 fluorescence intensity (a.u.) |
| CAAGATTTACTCAATTTTCTATATATACAAAAGTTTTGTTCGGAGTCACCTAGTGCAG | 9970 fluorescence intensity (a.u.) |
| GTAGGATTGATCTCGTTTGATTCGATCTTGGAATAGTCGGCGGAGTCACCTAGTGCAG | 14400 fluorescence intensity (a.u.) |
| CACAAATTACTTTTCGTTTACCAATATACCGAGCGAAACGCGGAGTCACCTAGTGCAG | 18200 fluorescence intensity (a.u.) |
| ACAAATTATTCCCATATATATATACCAAAAGGATATGCACCGGAGTCACCTAGTGCAG | 6070 fluorescence intensity (a.u.) |
| AGAGGCAGTAATTAACTATAAAGTCCTGCATATCCATATCCGGAGTCACCTAGTGCAG | 3820 fluorescence intensity (a.u.) |
| TATCTATAGTTAACTAGCTAATTACCATTAACACCTCACCCGGAGTCACCTAGTGCAG | 11700 fluorescence intensity (a.u.) |
| TTGTAATTAGTAGGGTGATTACTATTTGGTAATCATAAGTCGGAGTCACCTAGTGCAG | 33000 fluorescence intensity (a.u.) |

— PMC7819943, “Rice protein-binding microarrays: a tool to detect cis-acting elements near promoter regions in rice”
